This passage reports binding signal results from paper PMC10668032.

Some of the results follow. At the low end of the ranking the order means little.

The experiment deals with SIX1 homeodomain (reference allele) (UniProt Q15475). Put plainly: universal protein binding microarray. The note with it: Universal all-10-mer PBM (8x60K, AMADID 030236), 300 nM GST-tagged protein, Alexa Fluor 488 anti-GST; buffer, salt, pH and temperature not stated; high values mean tight binding; most listed sequences are background and not binding sites; double strand, one strand shown.
For the sequence GAGCCGGC, the binding signal is -0.0993 E-score.

As to GGTGGTGA, the binding signal is -0.0498 E-score.

For CGATGGAG, the binding signal stood at 0.167 E-score.

As for TAGTAAGA, the binding signal is -0.0267 E-score.

Regarding GATTTGCA, the binding signal was -0.222 E-score.

Turning to CAGTGCGA, the binding signal is -0.0319 E-score.

On to AGGTAATC, for which the binding signal was 0.0207 E-score.

As for GTATGTGA, the binding signal is -0.0503 E-score.

As for ATTGGATG, the binding signal turned out to be 0.0435 E-score.

In the case of AGGTACTA, the binding signal was -0.00237 E-score.

For the sequence AATTATAG, the binding signal was -0.0672 E-score.

In the case of GGCGTCCA, the binding signal was -0.215 E-score.

In the case of ATAGACGC, the binding signal worked out at 0.0699 E-score.

On to AAACAGGT, for which the binding signal was -0.146 E-score.

In the case of ACCTCCGC, the binding signal is 0.0827 E-score.

ACAGTACA: the binding signal is -0.0586 E-score.

On to ACACCCCG, for which the binding signal was found to be 0.353 E-score.

AGCGCTTG: the binding signal is -0.0929 E-score.

For CGAATCTA, the binding signal is -0.128 E-score.

ACCTAGCC: the binding signal is -0.115 E-score.

On to TACGTCTA, for which the binding signal was determined as 0.106 E-score.

As for CCATGGCC, the binding signal was -0.281 E-score.

ACCTCAAA: the binding signal was -0.119 E-score.

CCGCCCTC: the binding signal was determined as 0.011 E-score.

With CTGTTTCA, the binding signal was -0.194 E-score.

As to ATTAAGGA, the binding signal came out at 0.0208 E-score.

For the sequence AGTTGAGC, the binding signal was -0.0713 E-score.

For AGGCTTCC, the binding signal is -0.0657 E-score.

For TCTTCCCA, the binding signal was -0.201 E-score.

As for ATGCGAAG, the binding signal is -0.115 E-score.

In the case of AGCGAAAA, the binding signal was -0.206 E-score.

For CCAGCTAA, the binding signal was -0.182 E-score.

For AATCCTAA, the binding signal is -0.0273 E-score.

On to AAGCAGTC, for which the binding signal is -0.185 E-score.

Turning to GTCACGCA, the binding signal is -0.00944 E-score.

Take AAGGCCCG: the binding signal was -0.257 E-score.

For the sequence CTGTTATA, the binding signal came out at 0.00781 E-score.

Regarding AGTACTAG, the binding signal was -0.182 E-score.

As for ATCTGATG, the binding signal worked out at 0.156 E-score.

As to TGTATTAA, the binding signal came to 0.275 E-score.

With AGGTTTTC, the binding signal was -0.162 E-score.

For ATGTGTAG, the binding signal was -0.0862 E-score.

As for AAGTATAA, the binding signal was 0.184 E-score.

Consider ATGGGTGC, for which the binding signal was -0.088 E-score.

For the sequence ATTGGTCA, the binding signal was -0.0808 E-score.

Consider CGCCAATA, for which the binding signal amounted to 0.0986 E-score.

As for CCCCTAAC, the binding signal was -0.0738 E-score.

Regarding AACTCTCC, the binding signal was -0.081 E-score.

AAGGTACC: the binding signal was -0.225 E-score.

AAAAAACA: the binding signal was -0.295 E-score.

For the sequence AGTTTCAA, the binding signal is -0.116 E-score.

GAAACGCC: the binding signal was -0.15 E-score.

With ATATTTAA, the binding signal came out at 0.0464 E-score.

As to CACCATTA, the binding signal stood at 0.102 E-score.

For CCATAGGC, the binding signal was -0.189 E-score.

GTATGAAA: the binding signal turned out to be 0.0498 E-score.

Consider CCGGACAA, for which the binding signal is -0.0267 E-score.

AACCTATG: the binding signal was -0.0979 E-score.

Turning to AAAGATGT, the binding signal is -0.255 E-score.

Regarding GACCTCCC, the binding signal is -0.283 E-score.

In the case of GCTAACAC, the binding signal is -0.0438 E-score.

For the sequence GAGCACAA, the binding signal was -0.149 E-score.

Consider AGATGGGG, for which the binding signal is 0.0485 E-score.

Turning to AAGTCTGA, the binding signal was -0.0159 E-score.

AATTAACG: the binding signal was -0.144 E-score.

CAGCGGTC: the binding signal was -0.181 E-score.

With CTGCACTC, the binding signal is -0.0714 E-score.

Take CACGGCAA: the binding signal is -0.0875 E-score.

For CATCGACA, the binding signal was 0.107 E-score.

Consider AGGGTGAG, for which the binding signal was -0.114 E-score.

CTACGGAA: the binding signal is -0.2 E-score.

Regarding TAATTTCA, the binding signal is -0.248 E-score.

As for CAAGGTCC, the binding signal was -0.163 E-score.

Consider CCTTGGCA, for which the binding signal was -0.123 E-score.

As for GCAAGTGA, the binding signal turned out to be 0.113 E-score.

As for AAGTTCGC, the binding signal is -0.364 E-score.

AGCGATTC: the binding signal came out at 0.0123 E-score.

Consider AATAGGCG, for which the binding signal was -0.0385 E-score.

As to CTAGACAC, the binding signal is 0.158 E-score.

As for CTAAACTA, the binding signal is -0.176 E-score.

As to ACTGAGGG, the binding signal was -0.108 E-score.

As to CTGTTCCC, the binding signal is -0.163 E-score.

As to ATGAGCGA, the binding signal was -0.0318 E-score.

TGGGGTAA: the binding signal stood at 0.203 E-score.

As to CATGCGCC, the binding signal was -0.00213 E-score.

With AGTACCGG, the binding signal worked out at 0.125 E-score.

Turning to GATCTCAC, the binding signal is 0.317 E-score.

Consider AAAATCGG, for which the binding signal is -0.166 E-score.

Take CTATGTGA: the binding signal stood at 0.0843 E-score.

Consider ATCATCTC, for which the binding signal was determined as 0.371 E-score.

As to CGCGTAAG, the binding signal was -0.0928 E-score.

For the sequence GCTCCTTA, the binding signal was determined as 0.00598 E-score.

Consider CATTGTCC, for which the binding signal was -0.179 E-score.

Turning to CAGCCAGC, the binding signal is -0.198 E-score.

As to CCCTCGAG, the binding signal amounted to 0.0391 E-score.

With CGTAGGCC, the binding signal was -0.00105 E-score.

CTCGAATA: the binding signal was -0.0369 E-score.

As for GGGGTGTA, the binding signal amounted to 0.387 E-score.

Consider CAAGTGGC, for which the binding signal is -0.173 E-score.

For AGGGGCAA, the binding signal was -0.0867 E-score.

Consider GAGAGGCC, for which the binding signal was -0.346 E-score.

For CGGAGGAC, the binding signal is -0.0321 E-score.

Regarding ATGGTGAA, the binding signal was 0.0874 E-score.

For the sequence ATTCCCAA, the binding signal was -0.194 E-score.

In the case of CGAATTCC, the binding signal is 0.0515 E-score.

Regarding GTCTGCTA, the binding signal was -0.0173 E-score.

Turning to CAGCGCAA, the binding signal was -0.0757 E-score.

Take CGTGGGAG: the binding signal worked out at 0.0444 E-score.

Regarding GTGCAAAC, the binding signal was -0.177 E-score.

Regarding CAAGACAC, the binding signal was found to be 0.0599 E-score.

As to AGGTGTTC, the binding signal was determined as 0.14 E-score.

As to CCGCCGTA, the binding signal is -0.0142 E-score.

Consider CATGAGTA, for which the binding signal turned out to be 0.0448 E-score.

Take CGTTATCC: the binding signal stood at 0.126 E-score.

On to CCTATACG, for which the binding signal came out at 0.153 E-score.

Take TATGCCGA: the binding signal was 0.141 E-score.

GGACATCC: the binding signal is -0.0405 E-score.

As for AAAGAGAA, the binding signal was -0.12 E-score.

Take ACCACCTC: the binding signal was -0.0851 E-score.

AACAGTGT: the binding signal is -0.18 E-score.

AGATAAGC: the binding signal was -0.152 E-score.

On to GCCTCAAA, for which the binding signal was -0.152 E-score.

Take CTATGATA: the binding signal turned out to be 0.394 E-score.

Regarding GTATTATA, the binding signal was found to be 0.377 E-score.

Turning to ACAATCGC, the binding signal was found to be 0.101 E-score.

AGCGCACG: the binding signal is -0.2 E-score.

With AAAGGACC, the binding signal was -0.4 E-score.

As for CAAAGCCC, the binding signal is -0.218 E-score.

ATTTTGCG: the binding signal is -0.114 E-score.

AGGGTTTG: the binding signal was -0.16 E-score.

Take ACCTTAAG: the binding signal is -0.138 E-score.

Regarding CCGTTCCA, the binding signal was -0.135 E-score.

ACGCTCCT: the binding signal was -0.0782 E-score.

Take ACATCAGA: the binding signal was -0.0486 E-score.

In the case of CTGATCAA, the binding signal came to 0.0834 E-score.

As for CTAGGTCA, the binding signal was -0.277 E-score.

TACGACCA: the binding signal is 0.0621 E-score.

With AGTTTACA, the binding signal was -0.162 E-score.

With CCTAGTTC, the binding signal is -0.127 E-score.

For the sequence AGGTTCCG, the binding signal was -0.161 E-score.

ACTCAGAC: the binding signal was -0.0537 E-score.

Turning to GTAGACGA, the binding signal worked out at 0.0245 E-score.

Consider ATTGGCCC, for which the binding signal is -0.244 E-score.

Regarding ACTACACG, the binding signal is -0.00271 E-score.

Take AAACTCAG: the binding signal was -0.198 E-score.

As for CTGAACGC, the binding signal was -0.191 E-score.

In the case of AGGCATGA, the binding signal is -0.207 E-score.

In the case of GAATGTAA, the binding signal was -0.109 E-score.

For CTAAACAA, the binding signal was -0.22 E-score.

Take GCCTTGCA: the binding signal was -0.18 E-score.

For the sequence CCAGGCAG, the binding signal was found to be 0.0426 E-score.

Regarding ACCGAGGT, the binding signal came to 0.122 E-score.

Consider CCTTCTTA, for which the binding signal was determined as 0.0256 E-score.

As to AGGAACAC, the binding signal was 0.0451 E-score.

For CAAGGCCG, the binding signal was -0.118 E-score.

For the sequence GCAGAATA, the binding signal was 0.108 E-score.

On to ACCTAACA, for which the binding signal worked out at 0.0828 E-score.

With CACACTGA, the binding signal was 0.0892 E-score.

Consider ACATTGGG, for which the binding signal was -0.175 E-score.

On to ACTTGTGG, for which the binding signal is -0.0851 E-score.

TGATCACA: the binding signal was determined as 0.254 E-score.

Regarding AGCAGTCG, the binding signal is -0.162 E-score.

Regarding AGTTCAAG, the binding signal was -0.194 E-score.

Turning to CCGGCTGA, the binding signal turned out to be 0.0686 E-score.

Take CCGCACAG: the binding signal was -0.0162 E-score.

In the case of ATAGGTGA, the binding signal was 0.0531 E-score.

Regarding CGAGGGAA, the binding signal was -0.117 E-score.

GCAGCTCC: the binding signal is -0.157 E-score.

On to CATACGCA, for which the binding signal is -0.00165 E-score.

Take AGTCTACA: the binding signal was -0.166 E-score.

On to AGGGCACT, for which the binding signal is -0.328 E-score.

On to ACGCCAGA, for which the binding signal stood at 0.0316 E-score.
